# Among all 310,000 compounds or so, about 14,000 (4.5%) showed an effect of 50% or more. Effects have a minus sign here. This is one part of the list.
# Molecular target: human ether-à-go-go-related gene (hERG) potassium channel (human, UniProt Q12809)
# Assay: primary screen, population patch clamp on CHO cells stably expressing hERG
# 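Note: peak tail current of the secondary pulse compared with the same well before compound.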
# human ether-à-go-go-related gene (hERG) potassium channel, sequence (Q12809 whole entry, looked up): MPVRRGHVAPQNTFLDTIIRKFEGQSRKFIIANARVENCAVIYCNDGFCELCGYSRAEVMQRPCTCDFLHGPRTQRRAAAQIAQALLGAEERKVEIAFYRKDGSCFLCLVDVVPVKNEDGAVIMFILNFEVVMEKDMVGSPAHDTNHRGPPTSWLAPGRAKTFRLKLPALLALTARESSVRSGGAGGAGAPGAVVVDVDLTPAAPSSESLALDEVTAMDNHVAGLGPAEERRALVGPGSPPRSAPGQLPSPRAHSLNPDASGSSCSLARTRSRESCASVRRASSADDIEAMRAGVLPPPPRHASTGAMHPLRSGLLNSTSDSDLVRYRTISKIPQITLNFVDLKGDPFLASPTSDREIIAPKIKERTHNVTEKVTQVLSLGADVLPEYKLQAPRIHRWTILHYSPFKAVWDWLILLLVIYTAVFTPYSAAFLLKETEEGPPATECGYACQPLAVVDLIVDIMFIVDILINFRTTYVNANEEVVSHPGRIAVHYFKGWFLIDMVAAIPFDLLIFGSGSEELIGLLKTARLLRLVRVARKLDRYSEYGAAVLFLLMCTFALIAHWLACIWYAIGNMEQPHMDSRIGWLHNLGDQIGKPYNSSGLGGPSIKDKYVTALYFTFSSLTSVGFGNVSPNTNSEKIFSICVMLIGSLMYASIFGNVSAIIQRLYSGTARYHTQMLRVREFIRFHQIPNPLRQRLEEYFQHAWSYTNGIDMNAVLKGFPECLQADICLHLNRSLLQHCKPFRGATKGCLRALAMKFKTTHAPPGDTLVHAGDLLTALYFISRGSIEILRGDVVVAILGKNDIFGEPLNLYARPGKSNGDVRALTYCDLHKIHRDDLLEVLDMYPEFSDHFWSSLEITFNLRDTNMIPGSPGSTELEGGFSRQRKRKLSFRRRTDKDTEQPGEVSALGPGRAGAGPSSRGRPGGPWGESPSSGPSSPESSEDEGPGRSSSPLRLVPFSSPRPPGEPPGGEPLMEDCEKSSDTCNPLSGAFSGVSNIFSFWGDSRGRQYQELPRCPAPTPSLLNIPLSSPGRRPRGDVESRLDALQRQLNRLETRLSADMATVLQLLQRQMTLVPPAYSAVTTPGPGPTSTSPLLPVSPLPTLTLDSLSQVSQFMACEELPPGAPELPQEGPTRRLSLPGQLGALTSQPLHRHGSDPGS
row,Compound,"hERG current change (%, negative = inhibition) at 10uM"
1,CC(C)CC(NC(N)=O)C(=O)NCCc1ccc(Cl)cc1Cl (stereo not shown),3.07%
2,O=C(O)CC12CC3CC(C1)CC(n1ncc(NCc4ccco4)c(Cl)c1=O)(C3)C2,4.02%
3,COCCOC(=O)/C=C1/NC(=O)CS1,-11.1%
4,Cc1ccc(NC(CNS(=O)(=O)c2ccc(Cl)cc2)c2ccccc2)cc1 (stereo not shown),1.88%
5,COc1cc(-c2nnc(SCC(=O)Nc3ccc4c(c3)OCCO4)o2)cc(OC)c1OC,4.75%
6,COc1ccc2cc(C(=O)COC(=O)COc3ccc4c(C)cc(=O)oc4c3)ccc2c1,6.98%
7,O=C(N/N=C/c1ccc(-c2ccc(Br)cc2)o1)c1ccc2c(c1)OCO2,-1.81%
8,O=C(O)Cn1ncn(-c2ccc(OC(F)(F)F)cc2)c1=O,17.2%
9,CC1=CCC2C(=O)N(c3ccc(Br)cc3C)C(=O)C2C1 (stereo not shown),-14.6%
10,Cc1ccc2oc(=O)c3cc(C(=O)NCCCN4CCCC(C)C4)sc3c2c1 (stereo not shown),-34.9%
11,Br.CCCc1cc(-c2nc(-c3ccc(C)cc3)cs2)ccn1,6.1%
12,O=C(CNC(=O)c1ccccc1)OCc1cc(=O)n2cc(Br)ccc2n1,-31.6%
13,CC(C)(Oc1ccc(Cl)cc1)C(=O)NCc1ccc(S(N)(=O)=O)cc1,-4.49%
14,COC(=O)c1ccccc1NC(=O)C(C)Oc1ccccc1 (stereo not shown),-10.3%
15,C/C(=N\Nc1cccc(C(=O)O)c1)c1ccc(Cl)s1,4.6%
16,C=COCCCNc1ncnc2sc(-c3ccccc3)cc12,9.86%
17,COc1cc([N+](=O)[O-])cc(/C=C2/SC(=S)N(Cc3ccccc3)C2=O)c1O,28.8%
18,COc1ccc(OC)c(C2C(C#N)=C(N)Oc3cc(N)ccc32)c1 (stereo not shown),7.21%
19,O=P(O)(O)Cc1c(Cl)cccc1Cl,20.1%
20,COC(=O)c1c(NC(=O)Nc2ccc(Cl)cc2)sc(C)c1C,10.4%
21,CC1CCCCC1NC(=O)CCCCn1c(=O)[nH]c2ccsc2c1=O (stereo not shown),24.9%
22,Cc1ccc(Nc2ccccc2N)cc1,20.3%

row,Compound,"hERG current change (%, negative = inhibition) at 10uM"
1,COc1ccc2[nH]cc(CCNC(=O)c3ccc([N+](=O)[O-])cc3)c2c1,-28.8%
2,CCC(=O)N1CCN(C(=O)CC)C1c1ccccc1,4.33%
3,COc1cccc(S(=O)(=O)Nc2ccc(C(=O)NCc3ccco3)cc2)c1,3.01%
4,CN(c1ccccc1)S(=O)(=O)c1ccc(C(=O)Nc2ncccc2O)cc1,-1.85%
5,CN(O)/C=c1/ccc2c(n1)C(=O)C=CC=2,-8.33%
6,O=C(c1cc(-c2ccccc2)nc2ccccc12)N1CCN(c2ccccn2)CC1,-27.6%
7,Cc1ccccc1Cn1c(=O)c2c(nc3n2CCCN3Cc2ccccc2)n(C)c1=O,-15.3%
8,CC(C)(C)C1CCC(=NNC(=O)c2cc3c(s2)CCCC3)CC1 (stereo not shown),20.1%
9,C1=C(c2ccccc2)CCN(c2ncnc3nc[nH]c23)C1,-13.9%
10,CCOC(=O)c1cnn(-c2cccc(Cl)c2)c1N,-17.6%
11,O=S(=O)(c1ccc(NC(=S)N/N=C/c2ccc(N3CCOCC3)cc2)cc1)N1CCOCC1,13.9%
12,Clc1ccc(SCCN2CCNCC2)cc1.O=C(O)C(=O)O,-5.25%
13,COC(=O)c1sccc1NC(=O)CSc1ccccc1NS(=O)(=O)c1ccc(Cl)cc1,-1.77%
14,Cc1c(NC(=O)c2cccnc2C(=O)O)cccc1C(=O)O,1.63%
15,CCOc1ccc(-c2c(=O)n(OCC)c3ccccc3[n+]2[O-])cc1,-33%
16,Cc1ccc(-n2cccc2/C=C2/C(=N)N3C(=NC2=O)SN=C3S(C)(=O)=O)cc1,4.34%
17,CS(=O)(=O)c1ccc(Cl)c(NC(=O)CCc2ccccc2)c1,-33.6%
18,COc1ccccc1NC(=S)N1CCN(c2nc(-c3ccccc3)cs2)CC1,8.15%
19,CCOc1cc(C(=O)OCc2ccc([N+](=O)[O-])cc2)ccc1OCC(=O)N1CCOCC1,-42.7%
20,COCCCNCCCOc1ccc(Cl)cc1C(C)(C)C,-57.5%
21,CCOC(=O)c1ccc(NC(=S)Nc2ccccn2)cc1,15.4%
22,Brc1ccc(-c2noc(CCc3ccccc3)n2)o1,-2.91%

row,Compound,"hERG current change (%, negative = inhibition) at 10uM"
1,Br.NC12CC3CC(C1)CC(O)(C3)C2,12.7%
2,C=CCc1cccc2cc(C(=O)NNC(=O)CC#N)c(=O)oc12,1.21%
3,COc1ccc(NC(=O)CC(NCCc2ccccc2)C(=O)O)c(OC)c1 (stereo not shown),5.31%
4,Cc1ccc(C(=O)CCC(=O)NNC(=O)c2ccccc2O)cc1,-4.07%
5,CCOc1ccccc1N1CC(C(=O)N2CCN(Cc3ccc(C#N)cc3)CC2)CC1=O (stereo not shown),-67.3%
6,COc1ccc(-c2[nH]nc(-c3ccccc3)c2-c2nc3ccccc3[nH]2)cc1,-3.17%
7,Cc1ccc(C2(C)NC(=O)N(CC(=O)Nc3cc(S(=O)(=O)N(C)C)ccc3C)C2=O)cc1 (stereo not shown),-24.9%
8,CCOc1ccc(C(C)=O)cc1CSc1nnc(-c2cccs2)n1CC1CCCO1 (stereo not shown),-26.8%
9,CC(O)c1cccc(NC(=O)CCCc2ccccc2)c1 (stereo not shown),19.1%
10,CCOC(=O)c1cnc(-c2ccccc2)nc1Oc1ccc(OC)cc1,14.2%
11,CSc1ccc(C#N)cc1NC(=O)c1ccccc1,-36.5%
12,CC(C)SC1=NC(C)(C)C=C(/C=C/c2c(Cl)cccc2Cl)N1,7.98%
13,CCOc1ccc(/C=N/n2nnnc2N)cc1O,-21.5%
14,Cn1nnc(NCc2cc(Br)ccc2OCc2cccs2)n1,-3.74%
15,C[C@H]1CCC/C=C/[C@@H]2C[C@H](O)C[C@H]2[C@H](O)/C=C/C(=O)O1 [56463468],7.27%
16,Cc1ccc(CNC(=O)c2ccc(C)c(S(=O)(=O)N3CCCCC3)c2)cc1,-17.9%
17,COc1ccc(NC(=O)c2ccc(-c3ccc(C)c4ccccc34)o2)cc1,-1.32%
18,COCCN(C(=O)Cn1nnc2ccccc21)C(C(=O)NC1CCCC1)c1ccc(OC)cc1OC (stereo not shown),-2.72%
19,Nc1nc(-c2nonc2N)no1,14.5%
20,O=C(COc1ccc(Cc2ccccc2)cc1)c1ccc(F)cc1,3.42%
21,O=c1c2ccccc2nnn1CSc1nnc(-c2ccco2)o1,-14.8%
22,CCOc1ccc(CCNC(=O)COC(=O)c2ccc(F)c(S(=O)(=O)N3CCOCC3)c2)cc1OCC,-25.5%

row,Compound,"hERG current change (%, negative = inhibition) at 10uM"
1,O=C(NCCc1c[nH]c2ccccc12)/C(=C/c1cccnc1)NC(=O)c1ccco1,-64.7%
2,Cc1ccc(CN2CCN(/N=C/c3cc(Br)ccc3O)CC2)cc1,12.4%
3,Cc1nc2ccccn2c1C(=O)NNC(=S)Nc1ccc(Cl)cc1,-17.3%
4,COc1ccccc1NS(=O)(=O)c1cc(C(=O)NCCN2CCOCC2)ccc1Cl.Cl,-8.48%
5,O=C(COC(=O)c1n[nH]c2ccccc12)Nc1ccc(S(=O)(=O)N2CCCC2)cc1,-6.38%
6,Cc1ccc(NC(=O)c2cnn(-c3ccccc3)c2C)cc1,-3.55%
7,ON1C2CCCCC2N(O)C1c1ccccc1 (stereo not shown),13.2%
8,COc1cccc(-c2cc(C(=O)NC3CCCCC3)no2)c1,3.67%
9,COc1ccccc1NC(=S)N1CCC(NC(=O)C23CC4CC(CC(C4)C2)C3)CC1,25.6%
10,Cc1cc(C(=O)COC(=O)C2=NNC(=O)CC2)c(C)n1CCc1ccccc1,0.577%
11,Nc1ccc(-c2cc(-c3cccc(N)c3)nc(-c3ccccc3)n2)cc1,12%
12,CC(C)N(Cc1ccccc1)S(=O)(=O)c1ccc(Cl)nc1,-15.8%
13,O=C(NCc1ccc(Cl)cc1Cl)C1CC(=O)N(Cc2ccccc2)C1 (stereo not shown),-47.9%
14,O=C(NC1CCCCC1)[C@@H]1CC=C[C@@H]2CCN(Cc3ccccc3)C(=O)[C@@H]21,8.49%
15,O=C(Cc1ccc(Cl)cc1)NNC(=O)c1ccco1,10.2%
16,Cc1cc(-c2ccccc2)nc2cc(C(=O)N(Cc3ccccc3)Cc3ccccc3)nn12,-5.55%
17,Cc1ccc(C)c(S(=O)(=O)NC(C)C(=O)NCc2ccccn2)c1 (stereo not shown),14.6%
18,COC(=O)[C@@]1(Cc2ccc(OC)cc2)[C@H]2c3cc(C(=O)N(C)C)n(Cc4c(CO)[nH]cc(C)c4=O)c3C[C@H]2CN1C(=O)c1ccccc1,4.95%
19,CCC(=O)OCC(=O)Nc1cc(S(=O)(=O)N(C)C)ccc1Cl,17.1%
20,Cc1cc(C(F)(F)F)n(-c2nc(C(=O)O)cs2)n1,37%
21,CC(C)n1c(O)c(N=Nc2ccc(Cl)c(C(=O)O)c2)c2ccccc21,-5.41%
22,CCc1noc(C)c1C(=O)NCCc1ccc(F)cc1,5.94%

# Reference: paper PMC4336329 (PLoS ONE, 2015)
